{"source": "paper PMC4336329", "about": "(PLoS ONE, 2015)", "note": "Among all 310,000 compounds or so, about 14,000 (4.5%) showed an effect of 50% or more. The effect is printed as a negative number. Some of the results follow.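 Note: peak tail current of the secondary pulse compared with the same well before compound.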"}
{"target": "human ether-à-go-go-related gene (hERG) potassium channel (human, UniProt Q12809)", "sequence (Q12809 whole entry, looked up)": "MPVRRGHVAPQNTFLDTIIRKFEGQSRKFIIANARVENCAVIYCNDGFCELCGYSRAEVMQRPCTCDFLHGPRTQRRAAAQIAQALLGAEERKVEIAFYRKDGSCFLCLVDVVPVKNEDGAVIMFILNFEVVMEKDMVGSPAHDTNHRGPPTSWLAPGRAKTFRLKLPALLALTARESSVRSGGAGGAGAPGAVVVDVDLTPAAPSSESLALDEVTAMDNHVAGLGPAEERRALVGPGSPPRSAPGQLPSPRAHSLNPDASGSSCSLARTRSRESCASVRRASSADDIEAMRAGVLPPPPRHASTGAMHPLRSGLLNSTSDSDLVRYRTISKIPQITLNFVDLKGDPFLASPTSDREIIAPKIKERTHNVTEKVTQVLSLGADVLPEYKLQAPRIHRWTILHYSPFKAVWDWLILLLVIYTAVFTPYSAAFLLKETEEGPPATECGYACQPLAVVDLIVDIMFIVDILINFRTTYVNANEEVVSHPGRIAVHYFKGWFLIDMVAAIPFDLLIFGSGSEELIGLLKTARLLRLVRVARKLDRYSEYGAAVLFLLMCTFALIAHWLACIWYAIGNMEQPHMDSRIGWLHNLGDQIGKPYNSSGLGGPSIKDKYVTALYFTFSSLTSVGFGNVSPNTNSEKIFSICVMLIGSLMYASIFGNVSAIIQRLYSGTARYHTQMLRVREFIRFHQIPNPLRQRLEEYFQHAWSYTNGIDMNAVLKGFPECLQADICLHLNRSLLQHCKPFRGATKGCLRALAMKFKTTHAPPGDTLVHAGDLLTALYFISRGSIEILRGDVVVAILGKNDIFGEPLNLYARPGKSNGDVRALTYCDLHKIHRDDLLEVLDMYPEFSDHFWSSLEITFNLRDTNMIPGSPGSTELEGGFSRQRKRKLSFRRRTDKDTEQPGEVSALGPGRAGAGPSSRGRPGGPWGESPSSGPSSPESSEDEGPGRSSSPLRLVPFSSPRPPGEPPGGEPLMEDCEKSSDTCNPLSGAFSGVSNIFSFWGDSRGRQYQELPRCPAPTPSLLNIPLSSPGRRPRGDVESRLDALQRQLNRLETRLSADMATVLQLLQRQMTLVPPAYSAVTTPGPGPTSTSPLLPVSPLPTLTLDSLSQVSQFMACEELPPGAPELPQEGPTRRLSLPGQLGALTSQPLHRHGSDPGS", "assay": "primary screen, population patch clamp on CHO cells stably expressing hERG", "units": {"hERG current change (%, negative = inhibition) at 10uM": "%"}}
{"compound": "CCOC(=O)/C(=C\\c1ccccc1)NC(=O)c1ccccc1", "hERG current change (%, negative = inhibition) at 10uM": -1.79}
{"compound": "COc1ccccc1-c1nnc(NC(=O)Cc2ccccc2)o1", "hERG current change (%, negative = inhibition) at 10uM": 10.8}
{"compound": "CCOC(=O)c1ccc(NC(=S)NCc2cccnc2)cc1", "hERG current change (%, negative = inhibition) at 10uM": 12.3}
{"compound": "Cc1ccc(C(=O)NC(=S)Nc2ccccc2C)cc1", "hERG current change (%, negative = inhibition) at 10uM": -0.104}
{"compound": "CCCc1cc2c(=O)c(-c3ccc4c(c3)OCCO4)c(C)oc2cc1OS(C)(=O)=O", "hERG current change (%, negative = inhibition) at 10uM": -18.9}
{"compound": "COc1ccc(NC(=O)CN(C)CC(=O)NCc2ccc(C)cc2)cc1", "hERG current change (%, negative = inhibition) at 10uM": -21.3}
{"compound": "C=CCn1c(SCC(=O)Nc2nc3ccccc3s2)nc(O)c(CC)c1=O", "hERG current change (%, negative = inhibition) at 10uM": 6.88}
{"compound": "NC(=O)C1(N2CCCCC2)CCN(Cc2ccc(Br)cc2)CC1", "hERG current change (%, negative = inhibition) at 10uM": -51}
{"compound": "COC(=O)CNC(=O)Cc1c(F)cccc1Cl", "hERG current change (%, negative = inhibition) at 10uM": 19.1}
{"compound": "COc1nc(OC/C(N)=N/O)nc(N2CCOCC2)n1", "hERG current change (%, negative = inhibition) at 10uM": -11.6}
{"compound": "Cc1cc(Oc2ccccc2)nc(SCC(=O)Nc2ccccc2)n1", "hERG current change (%, negative = inhibition) at 10uM": 19.4}
{"compound": "CN(c1ccccc1)S(=O)(=O)c1cccc(NC(=O)CSc2ncc(C(F)(F)F)cc2Cl)c1", "hERG current change (%, negative = inhibition) at 10uM": 15.9}
{"compound": "COC(=O)c1ccc(OCC2NCCc3cc(OC)c(OC)cc32)cc1", "note": "(stereo not shown)", "hERG current change (%, negative = inhibition) at 10uM": 3.63}
{"compound": "O=C(CSc1nnc(-c2cccc(F)c2)o1)N1CCCC1", "hERG current change (%, negative = inhibition) at 10uM": 8.92}
{"compound": "Cc1ccc(C(=O)N/N=C/c2ccc(N3CCOCC3)cc2)c(C)c1", "hERG current change (%, negative = inhibition) at 10uM": 26.3}
{"compound": "NC(=O)CCC(NC(=O)c1ccc(Cl)cc1)C(=O)O", "note": "(stereo not shown)", "hERG current change (%, negative = inhibition) at 10uM": 5.66}
{"compound": "CCN1CCN(C(=O)C2CCN(S(=O)(=O)c3ccc(SC)cc3)CC2)CC1", "hERG current change (%, negative = inhibition) at 10uM": 11.6}
{"compound": "COc1cccc(C(C#N)N2N=C(C)CC2(C)C)c1O", "note": "(stereo not shown)", "hERG current change (%, negative = inhibition) at 10uM": 17.4}
{"compound": "COc1ccc(N(CC(=O)N2CCN(c3ccc(Cl)cc3)CC2)S(=O)(=O)c2c(C)n[nH]c2C)cc1", "hERG current change (%, negative = inhibition) at 10uM": -10.1}
{"compound": "Cn1c(=O)c(C(=O)CSc2nncs2)c(N)n(Cc2ccccc2)c1=O", "hERG current change (%, negative = inhibition) at 10uM": 18}
{"compound": "COc1c(/C=N/Nc2nc(N3CCCCC3)nc(N3CCCCC3)n2)cccc1[N+](=O)[O-]", "hERG current change (%, negative = inhibition) at 10uM": -6.19}
{"compound": "O=C(CCNS(=O)(=O)c1ccc2[nH]c(=O)oc2c1)NCc1ccc(F)cc1", "hERG current change (%, negative = inhibition) at 10uM": 12.7}
{"compound": "CN1CC=C2C(C#N)=C(N)C(C#N)(C#N)C(c3ccsc3)C2C1", "note": "(stereo not shown)", "hERG current change (%, negative = inhibition) at 10uM": -4.62}
{"compound": "Cc1cccc(/N=C/C2=C(O)CC(C)(C)CC2=O)n1", "hERG current change (%, negative = inhibition) at 10uM": 13.2}
{"compound": "CNC(=O)C1(C(F)(F)F)C/C(=C\\CCO)CCCO1", "note": "(stereo not shown)", "hERG current change (%, negative = inhibition) at 10uM": 8.94}
{"compound": "CCCSc1nc(C)c(C(C)=O)cc1C#N", "hERG current change (%, negative = inhibition) at 10uM": 5.28}
{"compound": "O=C(NCCCc1ccccn1)C1CCC(=O)N(Cc2cccc(F)c2)C1", "note": "(stereo not shown)", "hERG current change (%, negative = inhibition) at 10uM": 4.5}
{"compound": "Cc1cc(C=C2C(=O)N(C)C(=S)N(C)C2=O)c(C)n1C1CCCCC1", "hERG current change (%, negative = inhibition) at 10uM": 7.42}
{"compound": "CCN1CCN(c2cc(C)c3cc(NC(=S)N4CCN(c5ccccc5F)CC4)ccc3n2)CC1", "hERG current change (%, negative = inhibition) at 10uM": -16.1}
{"compound": "Cc1ccc(NC(=O)C2CCN(S(C)(=O)=O)CC2)c(C)c1", "hERG current change (%, negative = inhibition) at 10uM": 13.8}
{"compound": "Cc1ccc(S(=O)(=O)NCCC(=O)N2CCCCCCC2)cc1C", "hERG current change (%, negative = inhibition) at 10uM": -30.9}
{"compound": "Cc1cc(C)cc(NC(=O)CCC(=O)N2CCSc3ccccc32)c1", "hERG current change (%, negative = inhibition) at 10uM": -0.364}
{"compound": "CC(=O)NCCc1c[nH]c2ccccc12", "hERG current change (%, negative = inhibition) at 10uM": 4.81}
{"compound": "Cc1nn(Cc2c(F)cccc2Cl)c(C)c1[N+](=O)[O-]", "hERG current change (%, negative = inhibition) at 10uM": 9.63}
{"compound": "Cc1cc(N2CCN(c3ccccc3)CC2)nc(N)n1.Cl", "hERG current change (%, negative = inhibition) at 10uM": -42.9}
{"compound": "CC(C)CNC(=S)N1CCC(C(=O)c2ccc(F)cc2)CC1", "hERG current change (%, negative = inhibition) at 10uM": -61.4}
{"compound": "COc1cccc(-c2nn(-c3ccccc3)cc2C(=O)OCC(=O)Nc2ncc(Cl)cc2Cl)c1", "hERG current change (%, negative = inhibition) at 10uM": -22.2}
{"compound": "CC1CC(C)CN(C(=O)CCn2c(=O)oc3ccccc32)C1", "note": "(stereo not shown)", "hERG current change (%, negative = inhibition) at 10uM": 15.9}
{"compound": "O=C(CNc1cccc(Cl)c1)c1ccc(Br)cc1", "hERG current change (%, negative = inhibition) at 10uM": 19.6}
{"compound": "COc1ccccc1C(=O)NC(CCSC)C(=O)NCCCSc1ccccc1", "note": "(stereo not shown)", "hERG current change (%, negative = inhibition) at 10uM": -36.5}
{"compound": "Cc1ccc(S(=O)(=O)NCCC(=O)N2CCN(S(=O)(=O)c3ccccc3)CC2)cc1C", "hERG current change (%, negative = inhibition) at 10uM": -16.6}
{"compound": "COc1ccc(/C=N/NS(=O)(=O)c2ccccc2)cc1OC(=O)c1ccc(C)cc1", "hERG current change (%, negative = inhibition) at 10uM": 10.7}
{"compound": "O=C(O)c1nc(-c2ccccc2)n(-c2ccccc2)n1", "hERG current change (%, negative = inhibition) at 10uM": 4.87}
{"compound": "CCCCOC(=O)Nc1cc(Cl)ccc1C", "hERG current change (%, negative = inhibition) at 10uM": 1.24}
{"compound": "O=C(COC(=O)CNC(=O)c1ccc(Br)cc1)NCCC1=CCCCC1", "hERG current change (%, negative = inhibition) at 10uM": 24.7}
{"compound": "O=C(N/N=C/c1ccc(OCC(=O)N2CCCCC2)cc1)c1ccccc1", "hERG current change (%, negative = inhibition) at 10uM": 19}
{"compound": "COc1ccc(Cl)cc1N(C(=O)c1ccco1)C(C(=O)NC1CCCC1)c1cccnc1", "note": "(stereo not shown)", "hERG current change (%, negative = inhibition) at 10uM": -6.43}
{"compound": "Cc1nc(-c2nc(-c3c(C(=O)NN)noc3C)cs2)cs1", "hERG current change (%, negative = inhibition) at 10uM": 8.73}
{"compound": "Nn1c(Cc2cccc3ccccc23)nnc1SCC(=O)NC1CCS(=O)(=O)C1", "note": "(stereo not shown)", "hERG current change (%, negative = inhibition) at 10uM": 14.5}
{"compound": "O=C(OCc1cc(=O)n2c(n1)sc1ccccc12)c1ccc(O)cc1", "hERG current change (%, negative = inhibition) at 10uM": 19.6}
{"compound": "O=C1c2ccsc2SCCN1Cc1c(F)cccc1Cl", "hERG current change (%, negative = inhibition) at 10uM": -24.4}
{"compound": "CN1CCN(CC(=O)Nc2nc3c(s2)CCCC3)CC1", "hERG current change (%, negative = inhibition) at 10uM": 8.05}
{"compound": "COc1ccc(N(CC(=O)NCCC2=CCCCC2)S(=O)(=O)c2ccccc2F)cc1", "hERG current change (%, negative = inhibition) at 10uM": -1}
{"compound": "Cc1ccc(C(CNS(=O)(=O)c2ccc(Cl)cc2)N2CCN(C)CC2)cc1", "note": "(stereo not shown)", "hERG current change (%, negative = inhibition) at 10uM": -72.8}
{"compound": "CCc1ccc(NC(=O)c2cnn3c(C(F)F)cc(C)nc23)cc1", "hERG current change (%, negative = inhibition) at 10uM": -6.56}
{"compound": "COc1ccc(/C=C(\\C#N)C(=O)OCC(=O)NCc2ccccc2Cl)cc1", "hERG current change (%, negative = inhibition) at 10uM": 6.86}
{"compound": "CC(CNc1nc2ccccc2n2cnnc12)c1ccccc1", "note": "(stereo not shown)", "hERG current change (%, negative = inhibition) at 10uM": -8.79}
{"compound": "O=C(NCCOc1ccc(Cl)cc1)C1CC(=O)N(c2ccc(F)cc2)C1", "note": "(stereo not shown)", "hERG current change (%, negative = inhibition) at 10uM": -69.4}
